Assay results: PMC6200743
These are yes or no findings as the source states them, for the method shown. Binding seen in cells or lysates may run through a third protein. Some entries that bind do so weakly or less than the wild type. For some of these results: Sequences can lack the tags named with a protein.

The chains behind the UniProt entries cited, without tags or fusion partners. Where a name states a change or a piece, a line headed by the entry shows the natural chain unless it says otherwise.
UniProt Q01650: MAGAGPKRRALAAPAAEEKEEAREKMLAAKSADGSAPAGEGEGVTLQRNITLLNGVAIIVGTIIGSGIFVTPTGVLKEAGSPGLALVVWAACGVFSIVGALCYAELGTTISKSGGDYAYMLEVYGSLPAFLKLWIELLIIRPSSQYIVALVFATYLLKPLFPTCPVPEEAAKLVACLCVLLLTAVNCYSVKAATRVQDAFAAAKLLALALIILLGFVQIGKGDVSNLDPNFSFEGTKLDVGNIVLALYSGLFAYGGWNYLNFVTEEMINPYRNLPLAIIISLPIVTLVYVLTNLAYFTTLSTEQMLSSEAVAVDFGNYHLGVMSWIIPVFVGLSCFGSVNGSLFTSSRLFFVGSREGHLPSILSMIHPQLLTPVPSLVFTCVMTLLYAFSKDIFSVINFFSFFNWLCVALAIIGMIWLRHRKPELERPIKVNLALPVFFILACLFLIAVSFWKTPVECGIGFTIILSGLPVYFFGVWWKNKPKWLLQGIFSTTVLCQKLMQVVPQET

T1: Kv1.2-nanoluc (rat), P63142
T1 chain: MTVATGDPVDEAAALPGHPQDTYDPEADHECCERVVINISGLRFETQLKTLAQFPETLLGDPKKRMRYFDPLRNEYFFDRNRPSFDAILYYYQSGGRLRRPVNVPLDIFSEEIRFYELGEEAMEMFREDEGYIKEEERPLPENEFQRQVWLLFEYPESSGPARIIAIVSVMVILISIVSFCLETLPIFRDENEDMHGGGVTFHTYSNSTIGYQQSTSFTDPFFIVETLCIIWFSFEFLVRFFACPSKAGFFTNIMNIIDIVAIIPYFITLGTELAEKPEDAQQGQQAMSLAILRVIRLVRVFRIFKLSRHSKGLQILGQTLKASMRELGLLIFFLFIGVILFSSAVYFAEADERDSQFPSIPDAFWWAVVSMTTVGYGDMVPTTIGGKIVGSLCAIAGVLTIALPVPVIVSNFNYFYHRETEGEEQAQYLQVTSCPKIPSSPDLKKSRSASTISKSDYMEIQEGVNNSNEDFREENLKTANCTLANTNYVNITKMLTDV


How the values were obtained:
Kv1.2-YFPC (rat) = Kv1.2-YFPC (rat) (UniProt P63142); experiment: split reporter; split YFP (YFPN 1-157, YFPC 158-239) fused to two of Kv1.2, Slc7a5 and Slc3a2, the third tagged with LSS-mOrange (or LSS-mOrange alone); HEK cells, 1:1:1 transfection, 72 h, read by flow cytometry
Slc7a5-YFPC = Slc7a5-YFPC (UniProt Q01650); experiment: as above
Kv1.2-nanoluc (rat) = Kv1.2-nanoluc (rat) (UniProt P63142); experiment: FRET or BRET; live HEK293 cells; donor Kv1.2-nanoluc, acceptors tagged with mEGFP; emission spectra 400-700 nm, mEGFP component (area 480-600 nm) normalised to the mEGFP-Kv1.2 positive control; some samples with co-expressed Slc3a2
[1] = target: T1, Kv1.2-nanoluc (rat), P63142; experiment: as above; details: remark: other sources report otherwise

| binding (Kv1.2-nanoluc (rat)) | Molecule | other results |
| --- | --- | --- |
| no binding | mEGFP-Slc7a5[A246V] (from UniProt Q01650 1-507) | – |
| no binding | mEGFP-Slc7a5[P375L] (from UniProt Q01650 1-507) | – |
| no binding | mEGFP-Slc1a5 (protein, UniProt Q15758 1-541) MVADPPRDSKGLAAAEPTANGGLALASIEDQGAAAGGYCGSRDQVRRCLRANLLVLLTVVAVVAGVALGLGVSGAGGALALGPERLSAFVFPGELLLRLLRMIILPLVVCSLIGGAASLDPGALGRLGAWALLFFLVTTLLASALGVGLALALQPGAASAAINASVGAAGSAENAPSKEVLDSFLDLARNIFPSNLVSAAFRSYSTTYEERNITGTRVKVPVGQEVEGMNILGLVVFAIVFGVALRKLGPEGELLIRFFNSFNEATMVLVSWIMWYAPVGIMFLVAGKIVEMEDVGLLFARLGKYILCCLLGHAIHGLLVLPLIYFLFTRKNPYRFLWGIVTPLATAFGTSSSSATLPLMMKCVEENNGVAKHISRFILPIGATVNMDGAALFQCVAAVFIAQLSQQSLDFVKIITILVTATASSVGAAGIPAGGVLTLAIILEAVNLPVDHISLILAVDWLVDRSCTVLNVEGDALGAGLLQNYVDRTESRSTEPELIQVKSELPLDPLPVPTEEGNPLLKHYRGPAGDATVASEKESVM | – |

More lines, now with the values behind:

| Molecule | binding (Kv1.2-nanoluc (rat)) | other results |
| --- | --- | --- |
| Slc7a5-YFPN (from UniProt Q01650 1-507) | – | binding (Kv1.2-YFPC (rat)): binds |
| YFPN-Slc3a2 (from UniProt P08195 1-529) | – | binding (Slc7a5-YFPC): binds |
| mEGFP-Slc7a5 (from UniProt Q01650 1-507) | binds | – |
| Kv1.2-nanoluc, P63142 1-499 (protein) MTVATGDPVDEAAALPGHPQDTYDPEADHECCERVVINISGLRFETQLKTLAQFPETLLGDPKKRMRYFDPLRNEYFFDRNRPSFDAILYYYQSGGRLRRPVNVPLDIFSEEIRFYELGEEAMEMFREDEGYIKEEERPLPENEFQRQVWLLFEYPESSGPARIIAIVSVMVILISIVSFCLETLPIFRDENEDMHGGGVTFHTYSNSTIGYQQSTSFTDPFFIVETLCIIWFSFEFLVRFFACPSKAGFFTNIMNIIDIVAIIPYFITLGTELAEKPEDAQQGQQAMSLAILRVIRLVRVFRIFKLSRHSKGLQILGQTLKASMRELGLLIFFLFIGVILFSSAVYFAEADERDSQFPSIPDAFWWAVVSMTTVGYGDMVPTTIGGKIVGSLCAIAGVLTIALPVPVIVSNFNYFYHRETEGEEQAQYLQVTSCPKIPSSPDLKKSRSASTISKSDYMEIQEGVNNSNEDFREENLKTANCTLANTNYVNITKMLTDV | – | binding [1]: binds |
